{
  "source": "paper PMC9911399",
  "about": "“Two distinct binding modes provide the RNA-binding protein RbFox with extraordinary sequence specificity”",
  "binders": {"B1": {"name": "UGUAAAA (DNA:RNA)", "RNA": "GGGAGACCGGAAUUCAGAUUGUCCUGUAAAAUUAAAUCCCGUCGUAGCCACCA", "DNA 1": "CAATCTGAATTCCGGTCTCCC", "DNA 2": "TGGTGGCTACGACGGGATT"}, "B2": {"name": "CUUCUUA (DNA:RNA)", "RNA": "B1 RNA with U25C, G26U, A28C, A29U, A30U", "DNA 1": "CAATCTGAATTCCGGTCTCCC", "DNA 2": "TGGTGGCTACGACGGGATT"}, "B3": {"name": "UGGGUCU (DNA:RNA)", "RNA": "B1 RNA with U27G, A28G, A29U, A30C, A31U", "DNA 1": "CAATCTGAATTCCGGTCTCCC", "DNA 2": "TGGTGGCTACGACGGGATT"}, "B4": {"name": "GUCGUGU (DNA:RNA)", "RNA": "GGGAGACCGGAAUUCAGAUUGUCCGUCGUGUUUAAAUCCCGUCGUAGCCACCA", "DNA 1": "CAATCTGAATTCCGGTCTCCC", "DNA 2": "TGGTGGCTACGACGGGATT"}, "B5": {"name": "GCGGUGA (DNA:RNA)", "RNA": "B4 RNA with U26C, C27G, U31A", "DNA 1": "CAATCTGAATTCCGGTCTCCC", "DNA 2": "TGGTGGCTACGACGGGATT"}, "B6": {"name": "UCUGAUG (DNA:RNA)", "RNA": "B1 RNA with G26C, A28G, A30U, A31G", "DNA 1": "CAATCTGAATTCCGGTCTCCC", "DNA 2": "TGGTGGCTACGACGGGATT"}, "B7": {"name": "AUUACCG (DNA:RNA)", "RNA": "B1 RNA with U25A, G26U, A29C, A30C, A31G", "DNA 1": "CAATCTGAATTCCGGTCTCCC", "DNA 2": "TGGTGGCTACGACGGGATT"}, "B8": {"name": "AUUUAUA (DNA:RNA)", "RNA": "B1 RNA with U25A, G26U, A28U, A30U", "DNA 1": "CAATCTGAATTCCGGTCTCCC", "DNA 2": "TGGTGGCTACGACGGGATT"}, "B9": {"name": "GUCAGUG (DNA:RNA)", "RNA": "B4 RNA with G28A, U29G, G30U, U31G", "DNA 1": "CAATCTGAATTCCGGTCTCCC", "DNA 2": "TGGTGGCTACGACGGGATT"}, "B10": {"name": "GAACUCU (DNA:RNA)", "RNA": "B4 RNA with U26A, C27A, G28C, G30C", "DNA 1": "CAATCTGAATTCCGGTCTCCC", "DNA 2": "TGGTGGCTACGACGGGATT"}, "B11": {"name": "UAUGGGU (DNA:RNA)", "RNA": "B4 RNA with G25U, U26A, C27U, U29G", "DNA 1": "CAATCTGAATTCCGGTCTCCC", "DNA 2": "TGGTGGCTACGACGGGATT"}, "B12": {"name": "ACUCACC (DNA:RNA)", "RNA": "B1 RNA with U25A, G26C, A28C, A30C, A31C", "DNA 1": "CAATCTGAATTCCGGTCTCCC", "DNA 2": "TGGTGGCTACGACGGGATT"}, "B13": {"name": "ACAAACU (DNA:RNA)", "RNA": "B1 RNA with U25A, G26C, U27A, A30C, A31U", "DNA 1": "CAATCTGAATTCCGGTCTCCC", "DNA 2": "TGGTGGCTACGACGGGATT"}, "B14": {"name": "UGAUGUG (DNA:RNA)", "RNA": "B1 RNA with U27A, A28U, A29G, A30U, A31G", "DNA 1": "CAATCTGAATTCCGGTCTCCC", "DNA 2": "TGGTGGCTACGACGGGATT"}, "B15": {"name": "CUGGGAU (DNA:RNA)", "RNA": "B4 RNA with G25C, C27G, U29G, G30A", "DNA 1": "CAATCTGAATTCCGGTCTCCC", "DNA 2": "TGGTGGCTACGACGGGATT"}, "B16": {"name": "GAAUCAU (DNA:RNA)", "RNA": "B4 RNA with U26A, C27A, G28U, U29C, G30A", "DNA 1": "CAATCTGAATTCCGGTCTCCC", "DNA 2": "TGGTGGCTACGACGGGATT"}, "B17": {"name": "ACCCGCA (DNA:RNA)", "RNA": "B4 RNA with G25A, U26C, G28C, U29G, G30C, U31A", "DNA 1": "CAATCTGAATTCCGGTCTCCC", "DNA 2": "TGGTGGCTACGACGGGATT"}, "B18": {"name": "GAUCAUA (DNA:RNA)", "RNA": "B1 RNA with U25G, G26A, A28C, A30U", "DNA 1": "CAATCTGAATTCCGGTCTCCC", "DNA 2": "TGGTGGCTACGACGGGATT"}, "B19": {"name": "GUAGGCC (DNA:RNA)", "RNA": "B4 RNA with C27A, U29G, G30C, U31C", "DNA 1": "CAATCTGAATTCCGGTCTCCC", "DNA 2": "TGGTGGCTACGACGGGATT"}, "B20": {"name": "AGGGACU (DNA:RNA)", "RNA": "B4 RNA with G25A, U26G, C27G, U29A, G30C", "DNA 1": "CAATCTGAATTCCGGTCTCCC", "DNA 2": "TGGTGGCTACGACGGGATT"}, "B21": {"name": "UAGCUAC (DNA:RNA)", "RNA": "B1 RNA with G26A, U27G, A28C, A29U, A31C", "DNA 1": "CAATCTGAATTCCGGTCTCCC", "DNA 2": "TGGTGGCTACGACGGGATT"}, "B22": {"name": "ACGCUAG (DNA:RNA)", "RNA": "B4 RNA with G25A, U26C, C27G, G28C, G30A, U31G", "DNA 1": "CAATCTGAATTCCGGTCTCCC", "DNA 2": "TGGTGGCTACGACGGGATT"}, "B23": {"name": "GAGUCGC (DNA:RNA)", "RNA": "B4 RNA with U26A, C27G, G28U, U29C, U31C", "DNA 1": "CAATCTGAATTCCGGTCTCCC", "DNA 2": "TGGTGGCTACGACGGGATT"}, "B24": {"name": "AUCACGU (DNA:RNA)", "RNA": "B4 RNA with G25A, G28A, U29C", "DNA 1": "CAATCTGAATTCCGGTCTCCC", "DNA 2": "TGGTGGCTACGACGGGATT"}, "B25": {"name": "GGAGCGC (DNA:RNA)", "RNA": "B4 RNA with U26G, C27A, U29C, U31C", "DNA 1": "CAATCTGAATTCCGGTCTCCC", "DNA 2": "TGGTGGCTACGACGGGATT"}, "B26": {"name": "AUACGAC (DNA:RNA)", "RNA": "B4 RNA with G25A, C27A, G28C, U29G, G30A, U31C", "DNA 1": "CAATCTGAATTCCGGTCTCCC", "DNA 2": "TGGTGGCTACGACGGGATT"}, "B27": {"name": "CUCCCGU (DNA:RNA)", "RNA": "B4 RNA with G25C, G28C, U29C", "DNA 1": "CAATCTGAATTCCGGTCTCCC", "DNA 2": "TGGTGGCTACGACGGGATT"}, "B28": {"name": "GAAUUCU (DNA:RNA)", "RNA": "B4 RNA with U26A, C27A, G28U, G30C", "DNA 1": "CAATCTGAATTCCGGTCTCCC", "DNA 2": "TGGTGGCTACGACGGGATT"}, "B29": {"name": "CUGCGUA (DNA:RNA)", "RNA": "B4 RNA with G25C, C27G, G28C, U29G, G30U, U31A", "DNA 1": "CAATCTGAATTCCGGTCTCCC", "DNA 2": "TGGTGGCTACGACGGGATT"}, "B30": {"name": "UUAAGCC (DNA:RNA)", "RNA": "B1 RNA with G26U, U27A, A29G, A30C, A31C", "DNA 1": "CAATCTGAATTCCGGTCTCCC", "DNA 2": "TGGTGGCTACGACGGGATT"}, "B31": {"name": "GCCCAGC (DNA:RNA)", "RNA": "B4 RNA with U26C, G28C, U29A, U31C", "DNA 1": "CAATCTGAATTCCGGTCTCCC", "DNA 2": "TGGTGGCTACGACGGGATT"}},
  "note": "Positions count from the first letter of the chain named. The list shows a part of the results.",
  "data": [
    {"target": "T1, RBFOX1 RRM (Homo sapiens, UniProt Q9NWB1 109-208)", "T1 sequence": "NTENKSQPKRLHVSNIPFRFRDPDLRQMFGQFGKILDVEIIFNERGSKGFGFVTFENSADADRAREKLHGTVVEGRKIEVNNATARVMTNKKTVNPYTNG", "test": "EMSA; HiTS-Eq, 1 nM pool, 10 min; buffer printed only for the single-RNA assays: 10 mM Tris pH 7.5, 150 mM NaCl, 3.4 mM EDTA, 0.001% NP-40, 30 C", "details": "tags: His6 N-terminal (pET28a); label: 5' 32P", "method_in_brief": "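Purified RbFox RRM, wild type or mutant, was incubated for 10 min in 50 µL with 1 nM of a 5′-radiolabelled RNA pool carrying 7 randomized nucleotides, whose flanks were annealed to DNA oligonucleotides, over a series of increasing protein concentrations. Unbound RNA was resolved on 8% native PAGE, cut out, reverse-transcribed, barcoded by PCR and sequenced on an Illumina HiSeq 2500. Relative association constants were derived from changes in read counts for each RNA species versus the control reaction and normalised to the cognate motif.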", "values": [
      {"binder": "B1", "binding signal": "0.00602 KA relative to UGCAUGU"},
      {"binder": "B2", "binding signal": "0.00104 KA relative to UGCAUGU"},
      {"binder": "B3", "binding signal": "0.0375 KA relative to UGCAUGU"},
      {"binder": "B4", "binding signal": "0.0179 KA relative to UGCAUGU"},
      {"binder": "B5", "binding signal": "0.0242 KA relative to UGCAUGU"},
      {"binder": "B6", "binding signal": "0.0204 KA relative to UGCAUGU"},
      {"binder": "B7", "binding signal": "0.00226 KA relative to UGCAUGU"},
      {"binder": "B8", "binding signal": "0.00157 KA relative to UGCAUGU"},
      {"binder": "B9", "binding signal": "0.0134 KA relative to UGCAUGU"},
      {"binder": "B10", "binding signal": "0.00576 KA relative to UGCAUGU"},
      {"binder": "B11", "binding signal": "0.00854 KA relative to UGCAUGU"},
      {"binder": "B12", "binding signal": "0.00156 KA relative to UGCAUGU"},
      {"binder": "B13", "binding signal": "0.000249 KA relative to UGCAUGU"},
      {"binder": "B14", "binding signal": "0.0174 KA relative to UGCAUGU"},
      {"binder": "B15", "binding signal": "0.0159 KA relative to UGCAUGU"},
      {"binder": "B16", "binding signal": "0.00748 KA relative to UGCAUGU"},
      {"binder": "B17", "binding signal": "0.00659 KA relative to UGCAUGU"},
      {"binder": "B18", "binding signal": "0.00392 KA relative to UGCAUGU"},
      {"binder": "B19", "binding signal": "0.00837 KA relative to UGCAUGU"},
      {"binder": "B20", "binding signal": "0.0153 KA relative to UGCAUGU"},
      {"binder": "B21", "binding signal": "0.0152 KA relative to UGCAUGU"},
      {"binder": "B22", "binding signal": "0.0149 KA relative to UGCAUGU"},
      {"binder": "B23", "binding signal": "0.015 KA relative to UGCAUGU"},
      {"binder": "B24", "binding signal": "0.00386 KA relative to UGCAUGU"},
      {"binder": "B25", "binding signal": "0.022 KA relative to UGCAUGU"},
      {"binder": "B26", "binding signal": "0.00301 KA relative to UGCAUGU"},
      {"binder": "B27", "binding signal": "0.00391 KA relative to UGCAUGU"},
      {"binder": "B28", "binding signal": "0.0106 KA relative to UGCAUGU"},
      {"binder": "B29", "binding signal": "0.0152 KA relative to UGCAUGU"},
      {"binder": "B30", "binding signal": "0.00784 KA relative to UGCAUGU"},
      {"binder": "B31", "binding signal": "0.00937 KA relative to UGCAUGU"}
    ]}
  ]
}
